Experimental data published in publication PMC9831603.
Results are given in words; binding and its absence hold for the method and conditions named. Binding seen in cells or lysates may run through a third protein. Some entries that bind do so weakly or less than the wild type.

By UniProt entry, the sequences of proteins in these tests, tags left out. Where a name states a change or a piece, a line headed by the entry shows the natural chain unless it says otherwise. Chains listed by the source or under a name are the forms on record and can include a tag or linker.
UniProt P36405: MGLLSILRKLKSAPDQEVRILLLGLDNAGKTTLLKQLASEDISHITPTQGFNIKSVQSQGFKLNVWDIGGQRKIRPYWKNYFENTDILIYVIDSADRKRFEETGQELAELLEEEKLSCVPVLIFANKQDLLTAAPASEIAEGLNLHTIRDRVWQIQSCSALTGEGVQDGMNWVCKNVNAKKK
Arl3-D67V-FLAG (P36405, form named): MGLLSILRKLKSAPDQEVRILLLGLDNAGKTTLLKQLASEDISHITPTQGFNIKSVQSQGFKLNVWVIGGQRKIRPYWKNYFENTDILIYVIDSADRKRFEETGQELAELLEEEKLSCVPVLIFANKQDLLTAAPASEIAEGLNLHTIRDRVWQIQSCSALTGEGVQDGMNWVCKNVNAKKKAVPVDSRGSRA
Arl3-Q71L-FLAG (P36405, form named): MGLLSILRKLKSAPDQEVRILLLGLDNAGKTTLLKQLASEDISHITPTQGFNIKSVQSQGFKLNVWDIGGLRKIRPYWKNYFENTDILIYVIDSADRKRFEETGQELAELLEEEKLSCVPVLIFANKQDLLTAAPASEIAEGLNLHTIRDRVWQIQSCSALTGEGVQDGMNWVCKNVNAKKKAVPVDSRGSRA
wild-type Arl3-FLAG (P36405, form named): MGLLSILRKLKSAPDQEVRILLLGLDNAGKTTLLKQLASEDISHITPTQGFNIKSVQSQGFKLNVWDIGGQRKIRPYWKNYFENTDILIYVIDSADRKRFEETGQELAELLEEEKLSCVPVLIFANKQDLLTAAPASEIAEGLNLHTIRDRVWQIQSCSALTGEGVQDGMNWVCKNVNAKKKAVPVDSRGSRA
Arl3-T31N-FLAG (P36405, form named): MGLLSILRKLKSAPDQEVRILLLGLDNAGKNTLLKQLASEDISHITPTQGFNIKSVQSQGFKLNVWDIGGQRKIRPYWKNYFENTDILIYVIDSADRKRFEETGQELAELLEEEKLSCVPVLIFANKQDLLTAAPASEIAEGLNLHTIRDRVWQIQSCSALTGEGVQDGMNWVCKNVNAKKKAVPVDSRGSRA
Arl3-T31N/Y90C-FLAG (P36405, form named): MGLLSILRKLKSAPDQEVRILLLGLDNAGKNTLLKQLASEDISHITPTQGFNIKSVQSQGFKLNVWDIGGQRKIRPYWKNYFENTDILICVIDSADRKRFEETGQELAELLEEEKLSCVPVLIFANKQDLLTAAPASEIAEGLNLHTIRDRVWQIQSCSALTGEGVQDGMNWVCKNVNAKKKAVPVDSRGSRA
Arl3-Y90C-FLAG (P36405, form named): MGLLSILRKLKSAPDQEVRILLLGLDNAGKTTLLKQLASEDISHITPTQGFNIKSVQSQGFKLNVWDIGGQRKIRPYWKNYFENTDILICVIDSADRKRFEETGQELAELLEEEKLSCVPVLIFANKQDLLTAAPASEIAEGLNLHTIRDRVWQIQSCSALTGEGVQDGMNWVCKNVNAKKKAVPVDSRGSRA
Arl3-Y90C/R149H-FLAG (P36405, form named): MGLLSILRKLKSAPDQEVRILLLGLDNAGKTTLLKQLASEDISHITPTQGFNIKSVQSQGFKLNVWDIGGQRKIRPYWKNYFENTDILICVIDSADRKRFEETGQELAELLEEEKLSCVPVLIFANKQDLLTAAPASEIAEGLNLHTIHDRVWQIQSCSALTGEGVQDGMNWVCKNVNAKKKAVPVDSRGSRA
Arl3-D129N-FLAG (P36405, form named): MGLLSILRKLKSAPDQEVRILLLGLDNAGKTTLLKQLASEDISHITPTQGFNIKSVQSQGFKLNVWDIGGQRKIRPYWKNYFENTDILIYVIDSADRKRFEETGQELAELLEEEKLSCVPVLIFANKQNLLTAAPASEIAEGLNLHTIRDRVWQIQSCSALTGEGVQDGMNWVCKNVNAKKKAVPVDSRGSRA
UniProt Q640N2: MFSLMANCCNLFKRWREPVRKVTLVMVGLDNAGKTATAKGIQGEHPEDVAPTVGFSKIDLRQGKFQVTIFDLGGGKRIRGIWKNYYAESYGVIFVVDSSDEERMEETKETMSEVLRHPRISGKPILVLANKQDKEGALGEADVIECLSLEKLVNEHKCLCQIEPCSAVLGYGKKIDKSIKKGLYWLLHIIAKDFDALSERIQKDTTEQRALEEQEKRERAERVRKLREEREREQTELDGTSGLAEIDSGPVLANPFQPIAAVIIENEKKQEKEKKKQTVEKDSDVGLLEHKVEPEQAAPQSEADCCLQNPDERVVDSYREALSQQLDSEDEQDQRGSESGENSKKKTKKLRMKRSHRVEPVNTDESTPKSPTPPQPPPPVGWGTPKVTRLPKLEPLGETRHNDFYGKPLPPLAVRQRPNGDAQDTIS

Key:
[1] = target: GST-PDEδ (human) (UniProt O43924); assay: pull-down; GST-PDEδ (50 µg) cross-linked with DSS to magnetic glutathione beads; cleared lysates of transfected AD-293 cells (20 mM Tris pH 7.5, 200 mM NaCl, 5 mM MgCl2, 0.5% Igepal), first incubated with GST beads, then 45 min at 4°C with GST-PDEδ beads; washed with Buffer M; immunoblot; only the target purified
[2] = target: GST-PDEδ (human) (UniProt O43924); assay: pull-down; as the GST-PDEδ pull-down, but lysate first incubated with 10 mM EDTA and 10 mM GTP, 30°C 15 min, then MgCl2 added to 65 mM before the pull-down; immunoblot for Arl3; only the target purified
[3] = target: Arl3-T31N-FLAG (human) (UniProt P36405); assay: cross-linking + co-IP; in-cell DSS cross-linking and FLAG immunoprecipitation from AD-293 cells co-expressing Arl13B-GFP with Arl3-FLAG constructs (also with Arl3-T31N-myc); immunoblot
[4] = target: Arl3-T31N/Y90C-FLAG (human) (UniProt P36405); assay: as above
[5] = target: Arl3-Y90C-FLAG (human) (UniProt P36405); assay: as above
[6] = target: Arl3-Y90C/R149H-FLAG (human) (UniProt P36405); assay: co-IP; FLAG immunoprecipitation (magnetic FLAG beads, 2 hr 4°C, washes with 500 mM NaCl buffer, elution with 3X FLAG peptide) from lysates of AD-293 cells co-expressing Arl3-FLAG mutants and Arl13B-GFP or UNC119a-myc, not cross-linked; immunoblot
[7] = target: Arl3-T31N/Y90C-FLAG (human) (UniProt P36405); assay: as above
[8] = target: Arl3-Y90C-FLAG (human) (UniProt P36405); assay: as above
[9] = target: GST-PDEδ (human) (UniProt O43924); assay: pull-down; as the GST-PDEδ pull-down, but lysate first incubated with 65 mM MgCl2 and 10 mM GTP (no EDTA), 30°C 15 min; immunoblot for Arl3; only the target purified

Row | Substance | binding [1] | binding [2] | further results
1 | Arl3-D67V-FLAG (from UniProt P36405 1-182) | binds |  | 
2 | wild-type Arl3-FLAG (from UniProt P36405 1-182) |  | binds | 
3 | Arl3-T31N-FLAG (from UniProt P36405 1-182) | no binding |  | 
4 | Arl13B-GFP (from UniProt Q640N2 1-427) |  |  | binding [3]: no binding; binding [4]: binds; binding [5]: binds; binding [6]: no binding; binding [7]: binds; binding [8]: binds
5 | Arl3-Y90C-FLAG (from UniProt P36405 1-182) | no binding (condition: lysate without added GTP) | binds | binding [9]: binds

Further lines, with some results ahead:

Row | binding [1] | binding [2] | Substance | further results
6 | binds |  | Arl3-Q71L-FLAG (from UniProt P36405 1-182) | 
7 |  | binds | Arl3-D129N-FLAG (from UniProt P36405 1-182) | binding [9]: binds
8 |  | binds | endogenous Arl3 (from UniProt P36405 1-182) | 
